PubChem BioAssay AID1963576 (National Center for Advancing Translational Sciences (NCATS), 2024)
In all, about 46,000 compounds went through this assay and about 60 (0.1%) were called active. Not shown: some 3% with an inconclusive outcome. The call rests on the fitted dose curve; in most records, active means well fitted inhibition curve with a large enough effect; inconclusive means small, poorly fitted or top-dose-only effect; inactive means no such curve, though single readings can be large or run the other way. The list shows a part of the results.

experiment: Primary qHTS assay for Inhibitors of ovarian cancer metastasis using an organotypic tumor microenvironment (TME) model.; further: nearly all actives have a fitted effect of over 65% in size;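 on activity change, negative = inhibition: plate controls were DMSO wells for no effect and tomatine positive control wells for full effect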; details: SKOV3ip1-GFP adhesion/invasion on 3D omental model, fluorescence; series mostly up to 45.8 µM; activity change, negative = inhibition: at the top concentration
How it was run: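 Adhesion/invasion was scored as fixed GFP-labeled SKOV3ip1 cell counts (488/509 nm), normalized to DMSO and tomatine controls. Cancer cells in serum-free medium, with four compound doses (0.36-46 umol/L), sat 2 hr at RT then 16 hr at 37 C on a 48 hr fibroblast/mesothelial/ECM culture.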

Activity change, negative = inhibition, inactive:
COc1nc(-c2ccccc2)ccc1-c1noc(-c2ccccc2Br)n1 -4.52%
COc1cccc(OCc2cc(=O)n3c(-c4ccccc4)csc3n2)c1 19.7%
CCN1CCN(C(=O)Cn2c(-c3cccs3)cc3ccccc32)CC1 2.36%
COc1ccc(N2CCN(S(=O)(=O)CCNC(=O)COc3ccccc3F)CC2)cc1 -6.29%
CCN(CC)S(=O)(=O)c1ccc(C(=O)NCCSc2c(-c3ccc(C)cc3)[nH]c3ccccc23)cc1 -8.12%
O=C(CN1C(=O)COc2ccc(S(=O)(=O)N3CCCC3)cc21)N1CCN(c2cccc(C(F)(F)F)c2)CC1 -22.7%
COc1ccc(CCNC(=O)c2ccc3c(c2)N(Cc2ccccc2F)C(=O)c2ccccc2S3=O)cc1OC (stereo not given) -2.83%
Cc1ccc(Cc2nc3ccccc3nc2SCC(=O)N2CCCc3ccccc32)cc1 -11.8%
Cc1ccccc1N1C(=O)c2cc(S(N)(=O)=O)c(Cl)cc2NC1C (stereo not given) 0.746%
Cc1ccc(NC(=O)CCNS(=O)(=O)c2cccc3nonc23)cc1Cl -0.313%
CN1C(=O)c2ccccc2Sc2ccc(NC(=O)NCc3cccc(Cl)c3)cc21 0.766%
Cc1ccc(C(=O)Oc2c(S(=O)(=O)c3ccccc3)c(C)nn2-c2ccccc2)cc1 2.46%
CCOC(=O)CSc1nc(-c2ccc(Cl)cc2)cc(C(F)(F)F)c1C#N 5.83%
CC[C@H](NC(C)C)[C@H](O)c1ccc(O)c2[nH]c(=O)ccc12 -12.7%
CCCNC(=O)C(C)n1nc(C)c2c(C)n(-c3ccccc3)nc2c1=O (stereo not given) -0.396%
Cc1ccc(CNC(=O)CSc2c3c(nc4cc(Cl)ccc24)CCCC3)cc1 -6.55%
Cc1c(-c2nc(-c3ccccc3F)no2)nnn1-c1cc(F)ccc1F 1.97%
COc1ccccc1NC(=O)N1CCC(CN2CCc3ccccc3C2)CC1 0.206%
CCc1ccccc1NC(=O)C1CCN(C(=O)N2CC(C)Oc3ccc(Cl)cc32)CC1 (stereo not given) -26.7%
COc1ccc(Cl)cc1NC(=O)Cn1nc(Cc2ccncc2)c2ccccc2c1=O -2.8%
CCOc1ccccc1NC(=O)Cn1c(=O)n(Cc2ccco2)c(=O)c2ccc(C(=O)NC3CCCC3)cc21 -2.63%
Cc1ccc(NC(=O)Cn2c(=O)oc3ccccc32)cc1C -5.03%
Cc1ccc(NC(=O)c2sc3nc[nH]c(=O)c3c2C)cc1Cl -3.61%
COC(=O)c1c(NC(=O)c2cc(OC)c(OC)c(OC)c2Br)sc2c1CCC(C)C2 (stereo not given) 6.41%
Cc1c(Cl)cccc1-n1ncc(C(=O)NCc2cccs2)c1C1CCN(C(=O)OC(C)(C)C)CC1 3.39%
CC(C)CNc1ncnc2c1nnn2C 3.98%
COc1cc(C2c3c(-c4ccc(C)cc4)n[nH]c3C(=O)N2c2ccc(F)cc2)ccc1O (stereo not given) 11.7%
CNC(=O)Cn1c(=O)c2cccn2c2ccc(F)cc21 -9.84%
Cc1cccc(NC(=O)c2cc(S(=O)(=O)N3CCN(c4ccccc4F)CC3)ccc2F)c1C 9.27%
COc1ccc(CNC(=O)CCn2nc(C)c3c(C)n(-c4ccccc4)nc3c2=O)c(OC)c1 -5.02%
Cc1cc(C)c(NC(=O)Cn2c(=O)nc(-c3ccccc3)c3cc(Cl)ccc32)c(C)c1 14.4%
CC(C)(C)c1ccc(CN(Cc2ccco2)c2cnc(S(C)(=O)=O)nc2C(=O)Nc2ccc(F)cc2)cc1 -20.1%
N#C/C(=C/c1cn(Cc2ccccc2Cl)c2ccccc12)C(=O)Nc1cccc(Cl)c1 9.63%
Clc1ccc(OCc2nc3ccccc3n2Cc2ccccc2)c(Cl)c1 -5.22%
CCc1ccc(-c2nn(CC(=O)Nc3ccccc3C)c3c2cnc2ccc(C)cc23)cc1 0.249%
Cc1ccccc1CN1c2ccccc2-c2nc(SCC(N)=O)ncc2S1(=O)=O 9.21%
CCc1cccc(CC)c1-n1nnc2c(sc3nc(C)cc(C)c32)c1=O 9.32%
Cc1cc(=O)n(Cc2cccc(F)c2)c2c1c(C)nn2-c1cccc(F)c1 13.7%
Cc1ccc(C)c(NC(=O)CN2C(=O)c3cccnc3Oc3ccc(C)cc32)c1 2.36%
Cc1ccc(-c2nn(CC(=O)NC3CCCC3)c3c2cnc2ccccc23)cc1 1.97%
Cc1ccc(CNC(=O)c2ccc(-c3nc(CS(=O)c4ccccc4)c(C)o3)cc2)cc1 (stereo not given) -4.7%
Cc1cccc(-c2nc(CSCC(=O)NCCc3ccc(Cl)cc3)c(C)o2)c1 1.82%
COc1cc(NC(=O)c2nc3ccccc3nc2N2CCCCC2)cc(OC)c1OC 9.35%
CC(C)(C)C1CCc2c(sc3nnn(CCOc4ccccc4)c(=O)c23)C1 (stereo not given) 2.51%
Cc1ccc(C)c(NC(=O)c2nn(C)c3c2CS(=O)(=O)c2ccccc2-3)c1 6.98%
COc1cc(/C=C/c2nc(C#N)c(NCCc3ccccc3)o2)cc(OC)c1OC -9.08%
COCCn1ccc2c(OCC(=O)Nc3ccccc3F)cccc2c1=O -1.16%
O=C1N(c2ccccc2)c2ccccc2C1(Cc1ccncc1)Cc1ccncc1 3.08%
COc1cccc(C2=CC(c3ccccc3F)n3ncc(C(=O)Nc4ccc(C)cc4)c3N2)c1 (stereo not given) 1.6%
CCC(=O)Nc1ccc(CC)cc1-c1nc2ccccc2n(CC(=O)Nc2cccc(OC)c2)c1=O -25.5%
CC1CCCCN1c1c(S(=O)(=O)c2ccc(Cl)cc2)cnc2ccccc12 (stereo not given) -5.19%
Cc1ccc(CCNC(=O)c2sc3ncccc3c2-n2c(C)ccc2C)cc1 11.7%
CCOC(=O)c1cc2c(=O)n3ccccc3nc2n(CC(C)C)c1=NC(=O)COc1ccc(Cl)cc1 -8.24%
Cc1ccc(N(CC(=O)N2CCN(c3cccc(Cl)c3)CC2)S(=O)(=O)c2c(C)noc2C)cc1 3.82%
COc1ccc(C)cc1NC(=O)N1CCC(CN2CCOCC2)CC1 22.5%
CCc1ccc(-n2c(=O)c3ccccc3n(CC(=O)NCCc3ccc(OC)c(OC)c3)c2=O)cc1 7.07%
Cc1ccc2oc(C(=O)Nc3ccc(S(=O)(=O)N4CCCC(C)C4)cc3)cc(=O)c2c1 (stereo not given) -0.364%
O=C(O)c1ccccc1C(=O)Nc1ccc(-c2ccccc2)cc1 9.52%
COc1ccc(OC)c(NC(=O)CCCc2nnc3n(C(C)C)c(=O)c4sccc4n23)c1 -2.92%
CCn1cc2nc(SCc3cccc(C(F)(F)F)c3)n(Cc3ccc(Cl)cc3)c(=O)c2n1 -13.9%
CCOc1ccc(NC(=O)CC2C(=O)N(c3ccccc3)C(=O)N2CCc2cccs2)cc1 (stereo not given) 3.46%
CCN(CC)C(=O)c1sc2c(c1C)c(=O)n(-c1ccccc1)c(=O)n2Cc1c(C)cc(C)cc1C 0.329%
Cc1ccccc1NC(=O)c1c(NC(=O)c2ccccc2)sc2c1CCC2 -4.78%
Cc1ccc2cc3cc(C(=O)N4CCN(c5ccc(Cl)cc5)CC4)oc3nc2c1 4.87%
CCN(CC)C(=O)c1ccc2c(c1)N(Cc1c(F)cccc1Cl)C(=O)c1ccccc1S2 7.07%
CC(C)C(NS(=O)(=O)c1ccc2c(c1)oc(=O)n2C)C(=O)N1CCN(c2cccc(Cl)c2)CC1 (stereo not given) 1.25%
O=C(CSc1nc(=O)[nH]c2c1CCCC2)Nc1ccc(Cl)c(Cl)c1 4.71%
COc1ccc(N2CC(NC(=O)c3cccs3)CC2=O)cc1 (stereo not given) -2.01%
COC(=O)Cn1c(=NC(=O)c2ccc3c(c2)OCCO3)sc2ccccc21 -2.19%
Cc1ccn2c(Nc3c(C)cccc3C)c(-c3ccsc3)nc2c1 -11.8%
COc1ccc(NC(=O)C(Cc2c[nH]c3ccccc23)NC(=O)OC(C)(C)C)cc1 (stereo not given) 3.29%
Cc1ccc(C(=O)n2nc(C)c(S(=O)(=O)N3CCCCCC3)c2C)cc1C 34.2%
C=CC(=O)N1CCC[C@@H](n2nc(-c3ccc(Oc4ccccc4)cc3)c3c(N)ncnc32)C1 -0.0988%
Cc1ccc(-n2nc(C(=O)Nc3ccc(F)cc3Cl)c(=O)n(C)c2=O)cc1 -1.87%
CCOc1cccc2sc(N3CCN(C(=O)c4ccc5c(c4)CCCC5)CC3)nc12 -6.21%

outcome, inactive:
CCOc1ccccc1CNC(=O)CCc1c(C)nn(-c2ccc(N3CCOCC3)nn2)c1C
Cc1ccccc1C(=O)NCCc1csc(-c2ccc(C(F)(F)F)cc2)n1
Cc1cn2c(=O)cc(COC(=O)c3cccc(NC(=O)COc4ccccc4C)c3)nc2s1
Cc1cc(F)ccc1NC1(c2ccccc2)C(=O)c2ccccc2C1=O
CCOc1ccc(N(CC(=O)Nc2ccccc2CC)S(=O)(=O)c2c(C)[nH]c(=O)[nH]c2=O)cc1
CCOc1ccc(-n2c(SCC(=O)N3CCCCCC3)nc3c([nH]c4ccccc43)c2=O)cc1
CCn1cc(C(=O)NCCc2ccc(OC)c(OC)c2)c(=O)c2cc(S(=O)(=O)N3CCC(C)CC3)ccc21
Cc1ccc(OC(=O)CSc2nnc(-c3cccs3)o2)cc1C
COc1ccc(CNC(=O)c2ccc3nc(CCc4ccccc4)oc3c2)c(OC)c1
O=C(CCNS(=O)(=O)c1cccc2nsnc12)NCc1ccccc1
COc1cc(NC(=O)N2CCC3(CC2)Nc2cc(F)ccc2-n2cccc23)cc(OC)c1OC
COc1ccc(OC)c(C2C(C(=O)N3CCCCC3)=C(C)Nc3nc4ccccc4n32)c1 (stereo not given)
CCOC(=O)N1CCc2c(sc3c2c(=O)n(CCc2ccccc2)c(=O)n3CC(=O)Nc2cccc(C)c2)C1
COc1ccc(-c2nc(CS(=O)CC(=O)NCCc3ccccc3)c(C)o2)cc1OC (stereo not given)
Cc1cc(C)cc(-n2ccnc(NCCc3ccccc3)c2=O)c1
COc1ccc(Cl)cc1NC(=O)NCCn1c(=O)oc2ccc(C)cc21
Cc1ccc(C)c(N2CCN(C(=O)c3cnn(C(C)(C)C)c3C3CCN(C(=O)OC(C)(C)C)CC3)CC2)c1
Cc1ccc(Cl)cc1-n1nnc(-c2nsc(NC(=O)c3ccccc3Cl)n2)c1C
COc1ccc(-c2cn3nc(N4CCC(C(=O)Nc5ccccc5OC)CC4)sc3n2)cc1
CCN(CC)S(=O)(=O)c1ccc(NC(=O)c2cc3ccc4cccnc4c3[nH]2)cc1
